PubChem BioAssay AID1346428 (National Center for Advancing Translational Sciences (NCATS), 2018)
Among all 48,000 compounds or so, about 1,200 (2.5%) were called active. Another 2% or so got no clear call; they are omitted.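 The calls were made as follows: active = activation of at least 60% and not above a set upper limit (about 1 call in 100 departs from these limits); inconclusive = activation of 40% to 60%, or above that upper limit; inactive = activation under 40%.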 The list shows a part of the results.

Target: Probable G-protein coupled receptor 32 (Homo sapiens) (UniProt O75388)
Test: qHTS for Agonists of Human Resolvin D1 Receptor DRV1; also: 0% is about no effect
Conditions: CHO-K1 GPR32 beta-arrestin PathHunter luminescence, 90 min; at 76.9 µM; hits give high values; zero percent set by DMSO-only wells
Summary of the method: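 Luminescent readout of beta-Gal complementation quantifies ligand-induced beta-arrestin association with GPR32 in CHO-K1 cells; 90 min compound incubation at 37 °C, detection 1 h at room temperature.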

UniProt O75388, sequence (O75388 whole entry, looked up): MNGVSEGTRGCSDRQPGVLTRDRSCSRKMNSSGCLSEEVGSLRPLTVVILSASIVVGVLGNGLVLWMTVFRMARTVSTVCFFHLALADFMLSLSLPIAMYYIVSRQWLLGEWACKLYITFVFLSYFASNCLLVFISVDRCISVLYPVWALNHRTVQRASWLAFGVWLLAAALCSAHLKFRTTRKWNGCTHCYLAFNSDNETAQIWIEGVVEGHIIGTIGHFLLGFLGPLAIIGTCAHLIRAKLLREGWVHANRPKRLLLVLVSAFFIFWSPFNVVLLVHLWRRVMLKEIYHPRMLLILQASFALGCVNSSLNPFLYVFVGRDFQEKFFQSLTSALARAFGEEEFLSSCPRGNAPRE

activation, inactive:
Cc1ccc(Cl)cc1-n1c(CCC(=O)O)ccc1-c1cccs1 -9.7%, COc1cc(OC)c(NC(=O)Cn2c(=O)c(C(F)(F)F)nc3ccccc32)cc1Cl 21.7%, CCc1cccc(NC(=O)Cn2c(=O)n(-c3ccccc3C)c(=O)c3c2c2cc(C)ccc2n3C)c1 18.4%, COC(=O)c1ccc(CSc2nc3c([nH]c4ccccc43)c(=O)n2-c2ccc(F)cc2)o1 3.58%, Clc1ccccc1N1CCN(Cc2nnc(-c3ccccc3)o2)CC1 30.6%, O=C(Cn1c(=O)n(-c2ccccc2)c(=O)c2ccc(C(=O)NCc3ccc4c(c3)OCO4)cc21)Nc1ccc(F)cc1 -4.25%, COc1ccc(CCCc2nnc(SCC(=O)Nc3cccc(C)c3)o2)cc1C 15.8%, CCCCc1nn2c(=O)cc(COC(=O)c3cccc(NC(=O)c4cccc(Cl)c4)c3)nc2s1 -10.1%, Cc1ccccc1CN1CCc2nc(N3CCN(c4ncccn4)CC3)ncc2C1 -17.3%, CCCCN(C)CCCNC(=O)Cn1ncc2c3ccccc3n(Cc3cccc(Cl)c3)c2c1=O -13.1%, CCOc1ccccc1C(=O)Oc1c(S(=O)(=O)c2ccc(C)cc2)c(C)nn1-c1ccccc1 36.2%, Cc1cccc(N2CCN(S(=O)(=O)c3cn(C)c(C)n3)CC2)c1C 18.2%, COc1cc(NC(=O)CSc2nc(-c3cccs3)cc(C(F)(F)F)n2)cc(OC)c1OC 1.26%, COc1cccc(-n2c(SCC(=O)N3CCc4ccccc43)nc3c([nH]c4ccccc43)c2=O)c1 -1.83%, COCCNc1ccc(-c2nc(-c3ccncc3)no2)cc1[N+](=O)[O-] -16.8%, Cc1cccc(CSc2nc3c(c(=O)[nH]2)CCC3)c1 24.2%, O=C(Nc1ccc(F)cc1F)c1cccc2c1C(=O)N(C1CCCCC1)C2 -2.57%, Cn1cnc2c(NCc3ccccc3)nc(NCCO)nc21 -9.6%, COc1ccc(S(=O)(=O)NCc2cccn2Cc2cccc(C)c2)cc1Cl 3.43%, CNC(=O)c1ccc2nc(CCc3ccccc3)oc2c1 -7.05%, CCc1ccc(C2CC(=O)c3c([nH]c(C(=O)OC4CCC(C)CC4)c3C)C2)cc1 (stereo not drawn) -5.64%, CCc1cccc(C)c1NC(=O)C(CC)n1nc(C)c2c(C)n(-c3ccccc3)nc2c1=O (stereo not drawn) -13.7%, COc1ccc(-c2nc(SCC(=O)Nc3ccccc3)c(-c3ccc(F)cc3)[nH]2)cc1OC -24.9%, COc1ccc(OC)c(S(=O)(=O)N2Cc3ccccc3CC2C(=O)Nc2ccc(C)cc2C)c1 (stereo not drawn) -14.7%, CCS(=O)(=O)N1CCc2cc(C(=O)N3CCN(c4ccc(OC)cc4)CC3)ccc21 -3.17%, COc1ccc(-c2cc(C(F)(F)F)nc(SCC(=O)N3CCCCC3)n2)cc1OC -1.36%, Cc1ccc(N2CC(C(=O)NCCS(=O)(=O)N3CCN(c4ccccc4F)CC3)CC2=O)cc1 (stereo not drawn) -18.8%, Cc1ccc(NC(=O)CSc2nc3ccc(Br)cc3[nH]2)c(C)c1 1.05%, COc1ccc(S(=O)(=O)N(CC(=O)Nc2ccc(F)c(Cl)c2)c2ccc(C)cc2)cc1OC -18.5%, O=C(COc1ccc(F)cc1)Nc1nnc(S(=O)(=O)N2CCc3ccccc32)s1 16%, Cc1nc2c3ccccc3nc(NNC(=O)CCC(=O)N3CCN(c4cccc(Cl)c4)CC3)n2n1 -21.1%, CCOc1ccc(N(Cc2ccccc2)C(=O)c2nc(SCC)ncc2Cl)cc1 -33.4%, Cc1cccc(NC(=O)CSc2nc3ccccc3nc2N2CCC(C)CC2)c1 7.68%, CC1=C(c2ccc(C(C)C)cc2)S(=O)(=O)NC1=NCc1ccccc1C 21.1%, CN(C)CCN(C(=O)c1ccco1)c1nc2c(F)cc(F)cc2s1 31.3%, CC1CCN(C(=O)CSc2c3c(nc4ccc(Cl)cc24)CCCC3)CC1 -18.6%, COc1cccc2c1C(=O)c1c(O)c3c(c(O)c1C2=O)C[C@@](O)(C(=O)CO)C[C@@H]3O[C@H]1C[C@H](N)[C@H](O)[C@H](C)O1 -38.6%, O=C(Nc1ccc(OC(F)(F)F)cc1)C1CCN(S(=O)(=O)c2ccc3[nH]c(=O)ccc3c2)CC1 -2.87%, Cc1ccc(Nc2cc(C)nc(-n3nc(C)cc3C)n2)cc1 -33.4%, O=C(NC1CCCCC1)c1ccc2c(c1)N(Cc1cccc(F)c1)C(=O)c1ccccc1S2 -18.1%, Cc1ccc(-c2noc(CNC(=O)COc3cc(C)c(Br)c(C)c3)n2)cc1 -14.9%, CCOCCc1nnc(NC(=O)C(=O)c2cc(C)n(-c3cccc(C)c3)c2C)s1 -2.45%, Cn1cnc(S(=O)(=O)N2CCC(C(=O)Nc3ccc(F)cc3F)CC2)c1 -6.55%, CCOc1ccc(CNC(=O)c2ccc3c(c2)sc2nc(-c4ccccc4)cn23)cc1 -12.9%, O=C(NC1CCCCC1)c1ccc2c(c1)sc1nc(-c3ccc(F)cc3)cn12 8.18%, Cc1ccc(-n2nc(C(=O)N3CCN(c4ccc(F)cc4)CC3)c(=O)n(C)c2=O)cc1 0.396%, COc1ccc2nc(NC(=O)c3nc(S(=O)(=O)Cc4ccccc4F)ncc3Cl)sc2c1 -15.4%, Cc1ccc(C)c(N2CCN(c3nccn4nc(-c5ccc(Br)cc5)cc34)CC2)c1 0.963%, Cc1ccc(Cl)cc1NC(=O)C(NS(=O)(=O)c1cccc2nsnc12)c1ccccc1 (stereo not drawn) -27.3%, COc1ccc(NC(=O)C2CCCN(S(=O)(=O)c3ccc(Cl)cc3)C2)cc1 (stereo not drawn) 2.13%, Cc1nc2nc(NC(=O)c3ccc(F)cc3)[nH]n2c(=O)c1Cc1ccccc1 11.4%, COc1cc(C2c3c(oc4ccccc4c3=O)C(=O)N2c2nc(C)c(C)s2)ccc1O (stereo not drawn) -8.57%, O=C(COCc1cc(-c2cccs2)on1)NCc1ccccc1Cl -9.69%, Cc1cccn2c(=O)c(/C=C(\C#N)c3nc4ccccc4s3)c(Oc3ccc(Br)cc3)nc12 12.2%, Cn1c(=O)oc2cc(S(=O)(=O)CCC(=O)NCCc3ccccc3)ccc21 -14.1%, Cc1ccccc1NC(=O)Nc1ccc2nc(N3CCN(C)CC3)cc(C)c2c1 30.7%, CC(=O)c1cc(-c2ccc(F)cc2)n(CC(=O)NC(C)c2ccccc2)c1C (stereo not drawn) -23%, Cc1c(C(=O)OC2CCCCC2)[nH]c2c1C(=O)CC(c1ccccc1Cl)C2 (stereo not drawn) 4.35%, O=C(NCc1ccccc1F)C1CCN(Cc2cc3ccccc3n2Cc2cccc(Cl)c2)CC1 -54.5%, NCCNC(=O)c1ccc(Cl)cn1 -18%, Cc1cc(C)n(-c2nnc(Nc3ccc(C(C)C)cc3)c3ccccc23)n1 -14.7%, CC(=O)c1ccc(NC(=O)C2=CC(c3cccs3)=NS(=O)(=O)N2C)cc1 0.578%, COc1cccc(C(=O)NC(=O)Nc2ccc(-n3nc(C(F)(F)F)cc3C(F)(F)F)cc2)c1 -9.72%, COc1ccc(CNCc2ccc3c(c2)n(C)c(=O)n3C)cc1 1.95%, Cc1ccc2nc(-c3ccc(NC(=O)C(F)(F)F)cc3)sc2c1 -6.8%, COc1cc(Nc2nc(SCc3cccc(Cl)c3)nc3ccccc23)cc(OC)c1 -30.4%, Fc1ccc(Nc2c3c(nc4nncn24)CCC3)cc1 -5.32%, COc1cccc2c1[C@@H]1CN(CCCCn3c(=O)[nH]c4c(sc5ncc(-c6ccccc6)nc54)c3=O)C[C@@H]1CO2 -5.41%, Cc1cccc(NC(=O)CN2C(=O)COc3ccc(S(=O)(=O)N4CCC(C)CC4)cc32)c1C -16.8%, CCN(CC)CCCNC(=O)c1nn(-c2ccc(OC)c(Cl)c2)c(=O)c2c1c1ccccc1n2C 4.78%, CCOc1ccc(NC(=O)CCS(=O)(=O)c2ccc(Br)s2)cc1 12.8%, COc1ccc(NC(=O)CSc2nnc3scc(-c4ccc(Cl)cc4)n23)cc1 -0.549%, CCOC(=O)c1c(C)c(-c2ccccc2)n(CC(=O)Nc2cccc(F)c2)c1C 40%, COC(=O)c1sccc1S(=O)(=O)N(CC(=O)NCc1ccccc1)c1ccc(C)c(C)c1 -2.68%, Cn1nnnc1SCCNCc1ccc(OCc2ccccc2)cc1 8.61%, O=C(Nc1noc2ccccc12)c1c(F)cccc1F -5.49%, Cc1ccc(S(=O)(=O)N(CC(=O)N2CCc3ccccc3C2)c2ccc(C)c(C)c2)cc1 -9.67%, Cc1ccc(CNC(=O)Cn2c(=O)n(-c3ccc(C)c(F)c3)c(=O)c3sc4ccccc4c32)cc1 -4.11%, CCc1ccc(CNC(=O)C2CCCN(c3nn4cc(-c5ccc(F)cc5)nc4s3)C2)cc1 (stereo not drawn) -10%, O=C(Nc1cc(F)ccc1F)c1ccc2c(c1)nnn2C1CCCC1 38.9%, CCOc1ccc(-c2nc3c(C#N)c[nH]n3c2NC2CCCCC2)cc1 -26.5%, Cc1cccc(-c2nc(CCNC(=O)c3ccccc3Br)cs2)c1 2.96%, CCOC(=O)c1ccccc1NC(=O)N1CCCN(S(=O)(=O)c2ccc3c(ccn3CC)c2)CC1 -2.51%
